{"source": "the supplement of paper PMC11417369", "note": "The other results are listed elsewhere or left out.", "data": [{"tested_on": "PfAP2-HC AP2 domain (GST-tagged)", "assay": "gcPBM binding intensity (ln(normalized median fluorescence intensity)); higher = stronger DNA binding", "in_short": "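An Agilent 4 × 180k array of primer-extended double-stranded 36-bp intergenic genomic probes, with negative controls, was incubated for 1 h with GST-tagged P. falciparum DNA-binding domains expressed in E. coli. Alexa488 anti-GST antibody detected bound protein, scanned at 488 nm. Binding intensity is the highest Masliner-normalised natural-log median intensity across replicate spots of either probe orientation.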", "values": [{"sequence": "ACCATTTGTAGGTAAACACACATTATTATTAATATC [CACACA_site2635]", "gcPBM binding intensity (ln)": 9.8}, {"sequence": "ATTTTATATCTGGATAGTACTTTAATATTTCAAATG [XGTACX_site7304]", "gcPBM binding intensity (ln)": 9.51}, {"sequence": "GTATTTATAAATTATAGTACTTTGCGTATCATATAT [XGTACX_site7358]", "gcPBM binding intensity (ln)": 9.64}, {"sequence": "GGATATTCATTAACCACACACACAAAAAAAATAAAA [CACACA_site3800]", "gcPBM binding intensity (ln)": 11.2}, {"sequence": "TATATATCATATGATACATGCAACAAAATGCATAAT [TGCATGCA_site205]", "gcPBM binding intensity (ln)": 9.61}, {"sequence": "TACTTACCAAAATACACACACACACTAGATATATAA [CACACA_site5096]", "gcPBM binding intensity (ln)": 11.3}, {"sequence": "ATGTATATTACTCATTGTACTTATATTTTCTTATTA [XGTACX_site8897]", "gcPBM binding intensity (ln)": 9.84}, {"sequence": "TCATAGTATAGACACACACACACACGCATATAAATA [CACACA_site6915]", "gcPBM binding intensity (ln)": 10.5}, {"sequence": "TCTTTGTAAATTTCTTGTACGTAAATTTTTTTTAGG [XGTACX_site7062]", "gcPBM binding intensity (ln)": 9.52}, {"sequence": "TATTTTACATCTTCTCACATTTTATCACTTTTTAAA [CACACA_negctrl_site330]", "gcPBM binding intensity (ln)": 9.76}, {"sequence": "TGTATATATAAACATGCACACGTGGTTGTATATATA [CACACA_site9078]", "gcPBM binding intensity (ln)": 9.68}, {"sequence": "AGAATTCGTTTAAAAAGTACATTCAATTTAATAATG [XGTACX_site6603]", "gcPBM binding intensity (ln)": 9.39}, {"sequence": "AATATTTTAAAAAAAAGTACATTATATATATATGTT [XGTACX_site8073]", "gcPBM binding intensity (ln)": 9.38}, {"sequence": "TGTAGTCTGGAGAAGAGTACACAGTATCTGGTAACA [XGTACX_site2038]", "gcPBM binding intensity (ln)": 9.68}, {"sequence": "TAGTATTAAAATATTTGTACTTATATGTATTATATA [XGTACX_site538]", "gcPBM binding intensity (ln)": 9.59}, {"sequence": "AAAGAAATGAAATATACACACATACATAAATACATA [CACACA_site6081]", "gcPBM binding intensity (ln)": 10.3}, {"sequence": "AATTATATATTATAATGTACATATATATAACTATAC [XGTACX_site1865]", "gcPBM binding intensity (ln)": 9.67}, {"sequence": "ATAAAGGAAATTACAAGTACAAATAAGATAAAATAA [XGTACX_site4514]", "gcPBM binding intensity (ln)": 9.76}, {"sequence": "ATATATTTAAACTACACACGCATATCTTAGAAATAA [CACACA_site1272]", "gcPBM binding intensity (ln)": 9.78}, {"sequence": "TATAAAAAAAGAGGAGGGATGGTATACTTGTGGTTT [TGCATGCA_negctrl_site49]", "gcPBM binding intensity (ln)": 9.97}, {"sequence": "TTTTTTTTATGGTACACACACGCGTATGGTTGCACG [CACACA_site1877]", "gcPBM binding intensity (ln)": 9.9}, {"sequence": "TTATTTTTGTTCATAGTGCATAGAATTTATACATAT", "gcPBM binding intensity (ln)": 9.74}, {"sequence": "ATAGACAGCGCACAAACACACAAACACAGACCCCCA [CACACA_site4409]", "gcPBM binding intensity (ln)": 10.2}, {"sequence": "ATTTATTTATTGGCACGTACAAATTTGTGTTTTCCA [XGTACX_site6978]", "gcPBM binding intensity (ln)": 9.72}, {"sequence": "TTGTAAATTTCTGGTTATATATTTTATGTATATGTT [CACACA_negctrl_site1443]", "gcPBM binding intensity (ln)": 9.81}, {"sequence": "TTTTTTTCTTTTCAAACACACAATTGGTATATATCA [CACACA_site7542]", "gcPBM binding intensity (ln)": 9.72}, {"sequence": "ATATATATATATATATGTACTGAATAAAGAACAAAA [XGTACX_site5400]", "gcPBM binding intensity (ln)": 9.8}, {"sequence": "CGTATATGACAAAAGCGTACGCATCAGCAGAAAAAT [XGTACX_site6248]", "gcPBM binding intensity (ln)": 9.66}, {"sequence": "AGAATATGTTAAAAAAGTACATACTCTTTATATACG [XGTACX_site79]", "gcPBM binding intensity (ln)": 9.58}, {"sequence": "TAAAAAAAAACATATACACACAAAAACGTACACATA [CACACA_site1354]", "gcPBM binding intensity (ln)": 10.1}, {"sequence": "TTTTTTTCTCACAATCGTACATAAATACATATATAT [XGTACX_site3150]", "gcPBM binding intensity (ln)": 9.91}, {"sequence": "TAATGTACATAAACCGCACACATATAAAAAAATAAA [CACACA_site2851]", "gcPBM binding intensity (ln)": 9.98}, {"sequence": "TATATTTTTTAAACCACACACAATATAGAGTAGAAT [CACACA_site613]", "gcPBM binding intensity (ln)": 10.2}, {"sequence": "AGGGGAAATAAAATATAAATTATCATATATATATAT [XGTACX_negctrl_site366]", "gcPBM binding intensity (ln)": 9.62}, {"sequence": "AGAAATAAGAAATATACACACATATAAATATAAATA [CACACA_site7342]", "gcPBM binding intensity (ln)": 10.2}, {"sequence": "TTTTAAAATTATTAGGTGCATATTTATTCTATATTT", "gcPBM binding intensity (ln)": 9.63}, {"sequence": "TGTTTTTTTATTTTCACACATAATCCAATTATACAT [CACACA_site6070]", "gcPBM binding intensity (ln)": 9.88}, {"sequence": "TGCAATGGAGCATAAAGTACATATAATTGTATTTTT [XGTACX_site7349]", "gcPBM binding intensity (ln)": 9.55}, {"sequence": "AATACAGAGGAAAATACACACGTATATATATAAATA [CACACA_site9125]", "gcPBM binding intensity (ln)": 9.99}, {"sequence": "TAGAATAATCCTTACACACACACACCCACGAATAAA [CACACA_site483]", "gcPBM binding intensity (ln)": 10.5}, {"sequence": "ATCAACAAAACATACACACACATATATATATATATA [CACACA_site2989]", "gcPBM binding intensity (ln)": 10.3}, {"sequence": "TTTCTATATCTATTTAATTAACTTTTTATACTGATT [GTGCAC_negctrl_site415]", "gcPBM binding intensity (ln)": 9.75}, {"sequence": "GCATCTCATTTGTGATGTACTATATTATCCGTTTTT [XGTACX_site7576]", "gcPBM binding intensity (ln)": 9.71}, {"sequence": "CACATAAAAAAATAAACACACATATGTATTTATATA [CACACA_site5718]", "gcPBM binding intensity (ln)": 9.78}]}]}
